Assay results published in the supplement of paper PMC8728848.
Some of the results follow.

Key:
Test in all cases: glycan array binding signal (z-score within array); higher = stronger binding
Details in all cases: glycan notation: IUPAC condensed, linker removed
[1] = target: Neu5Ac(a2-6)GlcNAc(b1-4)GlcNAc(b1-4)GlcNAc
How it was run: (§1)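 The binding signal is a Z-score computed within each array. Data were drawn from 3228 arrays in the Consortium for Functional Glycomics database, restricted to those with a known protein sequence. Scores were averaged over arrays of the same protein sequence at different concentrations or buffers, and over linkers, and negative values can be taken as non-binding.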

Neu5Ac(a2-8)Neu5Ac = target: Neu5Ac(a2-8)Neu5Ac
How it was run: as §1

[2] = target: Neu5Ac(a2-8)Neu5Ac(a2-3)Gal(b1-3)GalNAc(b1-4)[Neu5Ac(a2-3)]Gal(b1-4)Glc
How it was run: as §1

[3] = target: Neu5Ac(a2-8)Neu5Ac(a2-3)Gal(b1-3)GalNAc(b1-4)[Neu5Ac(a2-8)Neu5Ac(a2-3)]Gal(b1-4)Glc
How it was run: as §1

[4] = target: Neu5Ac(a2-8)Neu5Ac(a2-3)Gal(b1-4)Glc
How it was run: as §1

[5] = target: Neu5Ac(a2-8)Neu5Ac(a2-3)Gal(b1-4)GlcNAc
How it was run: as §1

[6] = target: Neu5Ac(a2-8)Neu5Ac(a2-3)[Gal(b1-3)GalNAc(b1-4)]Gal(b1-4)Glc
How it was run: as §1

[7] = target: Neu5Ac(a2-8)Neu5Ac(a2-3)[GalNAc(b1-4)]Gal(b1-4)Glc
How it was run: as §1

[8] = target: Neu5Ac(a2-8)Neu5Ac(a2-8)Neu5Ac
How it was run: as §1

[9] = target: Neu5Ac(a2-8)Neu5Ac(a2-8)Neu5Ac(a2-3)Gal(b1-4)Glc
How it was run: as §1

[10] = target: Neu5Ac(a2-8)Neu5Ac(a2-8)Neu5Ac(a2-3)[Gal(b1-3)GalNAc(b1-4)]Gal(b1-4)Glc
How it was run: as §1

[11] = target: Neu5Ac(a2-8)Neu5Ac(a2-8)Neu5Ac(a2-3)[GalNAc(b1-4)]Gal(b1-4)Glc
How it was run: as §1

[12] = target: Neu5Ac(a2-8)Neu5Ac(a2-8)Neu5Ac(a2-8)Neu5Ac(a2-3)[GalNAc(b1-4)]Gal(b1-4)Glc
How it was run: as §1

[13] = target: Neu5Ac(a2-8)Neu5Gc(a2-3)Gal(b1-4)GlcNAc
How it was run: as §1

[14] = target: Neu5Ac(b2-6)Gal(b1-4)GlcNAc
How it was run: as §1

Neu5Ac(b2-6)GalNAc = target: Neu5Ac(b2-6)GalNAc
How it was run: as §1

[15] = target: Neu5Ac9Ac(a2-3)Gal(b1-3)GlcNAc
How it was run: as §1

[16] = target: Neu5Ac9Ac(a2-3)Gal(b1-4)GlcNAc
How it was run: as §1

[17] = target: Neu5Ac9Ac(a2-6)Gal(b1-4)GlcNAc
How it was run: as §1

[18] = target: Neu5Gc(a2-3)Gal(b1-3)GlcNAc
How it was run: as §1

[19] = target: Neu5Gc(a2-3)Gal(b1-3)[Fuc(a1-4)]GlcNAc
How it was run: as §1

Neu5Gc(a2-3)Gal(b1-4)Glc = target: Neu5Gc(a2-3)Gal(b1-4)Glc
How it was run: as §1

[20] = target: Neu5Gc(a2-3)Gal(b1-4)GlcNAc
How it was run: as §1

[21] = target: Neu5Gc(a2-3)Gal(b1-4)GlcNAc(b1-3)Gal(b1-4)GlcNAc(b1-2)Man(a1-3)[Neu5Gc(a2-3)Gal(b1-4)GlcNAc(b1-3)Gal(b1-4)GlcNAc(b1-2)Man(a1-6)]Man(b1-4)GlcNAc(b1-4)GlcNAc
How it was run: as §1

[22] = target: Neu5Gc(a2-3)Gal(b1-4)[Fuc(a1-3)]GlcNAc
How it was run: as §1

[23] = target: Neu5Gc(a2-6)Gal(b1-4)GlcNAc
How it was run: as §1

Neu5Gc(a2-6)GalNAc = target: Neu5Gc(a2-6)GalNAc
How it was run: as §1

[24] = target: Neu5Gc(a2-8)Neu5Ac(a2-3)Gal(b1-4)GlcNAc
How it was run: as §1

[25] = target: Neu5Gc(a2-8)Neu5Gc(a2-3)Gal(b1-4)GlcNAc
How it was run: as §1

[26] = target: Neu5Gc(a2-8)Neu5Gc(a2-3)Gal(b1-4)GlcNAc(b1-3)Gal(b1-4)GlcNAc
How it was run: as §1

[27] = target: Neu5Gc(a2-8)Neu5Gc(a2-6)Gal(b1-4)GlcNAc
How it was run: as §1

[28] = target: Neu5Gc(b2-6)Gal(b1-4)GlcNAc
How it was run: as §1

B1: InvD YPIII (Yersinia pseudotuberculosis), B1JSC0 (protein)
chain: MIKYFSFFKKPEPIVGILPNRQSHHILPTHIRRVAWGTLLLQLFIPLSVSFSPAIAAMKASKADTMVSYSSTEPYVLGSGETVAMVAKKYGITVDELKKINIYRTFSRPFTALTTGDEIDIPRKASPFSVDNNKDNRLSVENTLAGHAVAGATALSNGDVAKSGERMVRSAASNEFNNSAQQWLSQFGTARVQLNINDDFHLDGSAADVLIPLYDNEKSILFTQLGARNKDSRNTVNMGAGVRTFQGNWMYGANTFFDNDLTGKNRRIGVGAEAWTDYLKLSANNYFGITDWHQSRDFIDYNERPANGYDLRAEAYLPSYPQLGGKAMYEKYRGDDVALFGKDNRQKNPHAITAGVNYTPIPLVTIGAEHRAGKGGQNDSNINFQLNYRLGETWQSHIDPSAVAASRTLAGSRYDLVERNNHIVLDYQKQNLVRLSLPDSLAGDPFSQLSVTAQVTATHGLERIDWQSAELMAAGGVLKQTSKNGLEITLPEYQMNRTGGNSYILNAIAYDTQGNASSQASMLITVNAQKINIANSTLVAVPINIEANNSDTSVVTLTLKDDNNIPVTGQDVTFLSPLGTLSAMTDSGNGVYTATLTAGTVSGTTAVSSNINGSALDMTPATVTLNGNSGELSITHSMLVAAPVNIEANGSDTSVVTLTLRDSNNNPVTGQTVTFAGTLGTLGAVTEGSSGVYTATLTAGIMVGTSSITASVNSTALGVTPATVTLNGDSGNLSTTNSTLVAAPVNIEANSSDTSVVTLTLRDNNNNPVTGQTVVFTSTLGTLGNVTEQASGVYTATLTAGTVSGVASLSVSVGGNALGVTPATVTLNGDSGNLSTTNSTLVAAPVNIEANSSDTSVVTLTLRDNNNNPVTGQTVNFAGTLGTLGTVSEGSSGVYTTTLTAGTVAGVASLSVNVGGNALGVTPATVTLNGNSGNLSATNSTLVAAPVNIEANSSDTSVVTLTLRDNNNNPVTGQTVAFTSTLGTLGNVTEQASGVYTATLTAGTVSGVASLSVSVNSNALGVTPATVTLNGDSGNLSTTNSTLVAAPVNIEANSSDTSVVTLTLRDNNNNPVTGQTVAFTSTLGTLGNVTEQASGLYTATLTAGTVSGVASLSVNVGGNALGVTPATVTLNGDSGNLSATNSTLVAAPVNIEANSSDTSVVTLTLRDNNNNPVTGQTVAFTSTLGTLGNVTEQASGLYTATLTAGTVSGVASLSVNVGGTALGVTPATVTLNGDSGNLSTTNSTLVAAPVNIEANSSDTSVVTLTLRDNNNNPVTGQTVAFTSTLGTLGNVTEQASGLYTATLTAGTVSGVASLSVSVNSTALGVTPATVTLNGDSGNLSTTNSTLVAAPVNIEANSSDTSVVTLTLRDNNNNPVTGQTVAFTSTLGTLGNVTEQASGVYTATLTAGTVAGVASLSVNVGGNALGVTPATVTLNGDSGNLSTTNSTLVAAPVNIEANSSDTSVVTLTLRDNNNNPVTGQTVAFTSTLGTLGNVTEQASGVYTATLTAGTVSGVASLSVSVGSSALGVTPATVTLNGDSGNLSTTNSTLVAAPVNIEANNSDTSVVTLTLRDNNNNPVTGQTVAFTSTLGTLGNVTEQASGVYTATLTAGTVSGVASLSVSVNSNALGVTPATVTLNGDSGNLSTTNSTLVAAPVNIEANSSDTSVVTLTLRDNNNNPVTGQTVVFTSTLGTLGNVTEQASGLYTATLTAGTVSGVASLSVSVGGNALGVTGNITLAPGALDAARSILAVNKPSINADDRIGSTITFTAQDAQGNAITGLDIAFMTDLENSQIMTLVDHNDGTYTANINGTQTGIANIAVQSSGATIAGLAATMVTITPGAWNTTQATPVMTVALPITTCQSSSGVYKRYYIGIVTHELYDNYGNEISGILTYNLGAGRYTTVTSQNSSVSGSNGLTRRSNSPVSHFILTSDAYTSQAACYAERIANVNVTITVTAITDDFKTSAVNKVFILGTGSN
- glycan array binding signal (z-score) [1]: -0.339
- glycan array binding signal (z-score) (Neu5Ac(a2-8)Neu5Ac): -0.096
- glycan array binding signal (z-score) [2]: -0.023
- glycan array binding signal (z-score) [3]: -0.022
- glycan array binding signal (z-score) [4]: -0.211
- glycan array binding signal (z-score) [5]: -0.179
- glycan array binding signal (z-score) [6]: -0.061
- glycan array binding signal (z-score) [7]: -0.107
- glycan array binding signal (z-score) [8]: -0.347
- glycan array binding signal (z-score) [9]: -0.093
- glycan array binding signal (z-score) [10]: -0.05
- glycan array binding signal (z-score) [11]: -0.233
- glycan array binding signal (z-score) [12]: -0.363
- glycan array binding signal (z-score) [13]: -0.23
- glycan array binding signal (z-score) [14]: -0.095
- glycan array binding signal (z-score) (Neu5Ac(b2-6)GalNAc): 0.163
- glycan array binding signal (z-score) [15]: 0.008
- glycan array binding signal (z-score) [16]: -0.152
- glycan array binding signal (z-score) [17]: -0.3
- glycan array binding signal (z-score) [18]: -0.296
- glycan array binding signal (z-score) [19]: -0.472
- glycan array binding signal (z-score) (Neu5Gc(a2-3)Gal(b1-4)Glc): -0.223
- glycan array binding signal (z-score) [20]: -0.352
- glycan array binding signal (z-score) [21]: 0.122
- glycan array binding signal (z-score) [22]: -0.293
- glycan array binding signal (z-score) [23]: -0.106
- glycan array binding signal (z-score) (Neu5Gc(a2-6)GalNAc): -0.093
- glycan array binding signal (z-score) [24]: -0.373
- glycan array binding signal (z-score) [25]: -0.373
- glycan array binding signal (z-score) [26]: 0.086
- glycan array binding signal (z-score) [27]: -0.317
- glycan array binding signal (z-score) [28]: 0.042
